About 21,000 targets were measured; listed, in parts, are those with the largest changes and a random draw of the rest.
Compound: CC1Cc2ccccc2N1C(=O)C1CCCN(C1)C(=O)CCl (mixture of isomers) [TRIM25 ligand 11 (diastereomer mixture)]
Assay: probe-labelled cysteine peptide fold change vs DMSO (competition) (log2 fold change); higher = less target engagement (more negative = stronger competition)
Conditions: THP-1, incubation time: 4 h
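Note: competitive chemoproteomic profiling in live THP-1 cells with an iodoacetamide desthiobiotin (IA-DTB) probe, comparing probe-labelled peptide intensities in compound-treated cells against DMSO-treated controls.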

Chain of UniProt Q9NPF2 (Q9NPF2 whole entry, looked up): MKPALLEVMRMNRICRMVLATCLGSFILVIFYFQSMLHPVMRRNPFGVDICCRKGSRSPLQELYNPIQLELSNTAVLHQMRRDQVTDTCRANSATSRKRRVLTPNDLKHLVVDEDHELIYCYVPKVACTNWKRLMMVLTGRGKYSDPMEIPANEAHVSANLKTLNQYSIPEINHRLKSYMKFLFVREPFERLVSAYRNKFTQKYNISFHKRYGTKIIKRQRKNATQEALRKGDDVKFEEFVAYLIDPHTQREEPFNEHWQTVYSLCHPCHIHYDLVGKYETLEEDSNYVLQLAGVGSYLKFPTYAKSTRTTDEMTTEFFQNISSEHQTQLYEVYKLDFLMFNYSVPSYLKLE
Chain of UniProt A5YKK6 (A5YKK6 whole entry, looked up): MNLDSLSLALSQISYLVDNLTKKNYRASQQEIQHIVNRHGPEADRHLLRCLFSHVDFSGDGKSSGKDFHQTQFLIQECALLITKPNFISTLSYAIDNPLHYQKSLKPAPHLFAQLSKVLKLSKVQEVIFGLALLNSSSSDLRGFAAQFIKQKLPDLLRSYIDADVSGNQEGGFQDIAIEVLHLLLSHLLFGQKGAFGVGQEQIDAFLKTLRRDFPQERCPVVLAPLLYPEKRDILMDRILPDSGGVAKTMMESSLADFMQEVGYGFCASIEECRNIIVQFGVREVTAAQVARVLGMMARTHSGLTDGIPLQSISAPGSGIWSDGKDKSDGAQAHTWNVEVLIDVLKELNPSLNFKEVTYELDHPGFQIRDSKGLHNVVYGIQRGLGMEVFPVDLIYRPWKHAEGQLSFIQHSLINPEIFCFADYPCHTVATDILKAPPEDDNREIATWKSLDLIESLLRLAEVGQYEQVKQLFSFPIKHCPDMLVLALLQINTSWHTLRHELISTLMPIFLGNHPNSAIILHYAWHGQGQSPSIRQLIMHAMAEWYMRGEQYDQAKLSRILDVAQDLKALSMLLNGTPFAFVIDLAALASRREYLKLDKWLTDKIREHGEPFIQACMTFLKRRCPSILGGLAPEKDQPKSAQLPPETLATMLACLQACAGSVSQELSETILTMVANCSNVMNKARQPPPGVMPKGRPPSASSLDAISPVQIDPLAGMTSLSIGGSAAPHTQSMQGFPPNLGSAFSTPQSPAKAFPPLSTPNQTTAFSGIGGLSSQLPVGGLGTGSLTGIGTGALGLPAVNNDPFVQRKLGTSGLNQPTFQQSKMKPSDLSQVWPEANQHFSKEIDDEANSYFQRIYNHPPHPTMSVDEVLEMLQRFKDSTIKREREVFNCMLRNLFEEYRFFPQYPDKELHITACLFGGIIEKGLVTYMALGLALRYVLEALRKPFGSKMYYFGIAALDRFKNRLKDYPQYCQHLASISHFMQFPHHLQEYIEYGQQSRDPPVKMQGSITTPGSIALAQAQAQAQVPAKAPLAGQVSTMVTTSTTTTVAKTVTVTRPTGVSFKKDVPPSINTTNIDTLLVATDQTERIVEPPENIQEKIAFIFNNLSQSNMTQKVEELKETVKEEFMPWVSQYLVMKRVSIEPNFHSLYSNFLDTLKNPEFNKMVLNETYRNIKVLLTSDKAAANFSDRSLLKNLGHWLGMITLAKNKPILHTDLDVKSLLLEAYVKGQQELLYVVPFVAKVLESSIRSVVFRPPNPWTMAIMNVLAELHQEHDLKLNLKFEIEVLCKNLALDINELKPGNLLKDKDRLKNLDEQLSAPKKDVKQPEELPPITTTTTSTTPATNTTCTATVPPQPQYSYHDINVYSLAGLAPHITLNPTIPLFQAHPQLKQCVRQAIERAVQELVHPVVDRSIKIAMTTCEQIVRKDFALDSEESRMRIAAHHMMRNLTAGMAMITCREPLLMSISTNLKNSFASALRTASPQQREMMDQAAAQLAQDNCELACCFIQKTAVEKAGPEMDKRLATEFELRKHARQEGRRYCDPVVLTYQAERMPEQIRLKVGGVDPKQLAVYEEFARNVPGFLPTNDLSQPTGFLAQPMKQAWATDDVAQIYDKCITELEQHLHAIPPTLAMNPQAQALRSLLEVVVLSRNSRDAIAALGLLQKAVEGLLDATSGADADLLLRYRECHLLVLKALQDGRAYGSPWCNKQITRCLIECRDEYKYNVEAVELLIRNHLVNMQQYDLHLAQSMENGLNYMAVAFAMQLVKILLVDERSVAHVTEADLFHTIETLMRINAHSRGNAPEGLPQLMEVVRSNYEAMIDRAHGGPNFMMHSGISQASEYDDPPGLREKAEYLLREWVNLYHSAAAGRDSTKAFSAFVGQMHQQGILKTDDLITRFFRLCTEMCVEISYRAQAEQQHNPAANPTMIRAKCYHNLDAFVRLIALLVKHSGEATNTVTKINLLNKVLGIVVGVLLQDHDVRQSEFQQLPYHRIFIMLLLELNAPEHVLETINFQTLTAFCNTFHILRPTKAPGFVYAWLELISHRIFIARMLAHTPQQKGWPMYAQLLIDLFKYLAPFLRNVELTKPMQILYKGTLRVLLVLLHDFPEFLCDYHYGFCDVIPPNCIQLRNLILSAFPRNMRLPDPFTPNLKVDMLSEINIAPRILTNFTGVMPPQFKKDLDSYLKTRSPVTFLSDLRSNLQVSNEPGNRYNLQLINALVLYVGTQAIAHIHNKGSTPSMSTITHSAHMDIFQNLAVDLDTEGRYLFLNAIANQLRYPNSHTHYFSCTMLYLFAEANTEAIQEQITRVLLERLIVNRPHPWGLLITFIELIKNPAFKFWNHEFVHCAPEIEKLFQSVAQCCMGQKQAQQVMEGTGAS
Chain of UniProt Q3V6T2 (Q3V6T2 whole entry): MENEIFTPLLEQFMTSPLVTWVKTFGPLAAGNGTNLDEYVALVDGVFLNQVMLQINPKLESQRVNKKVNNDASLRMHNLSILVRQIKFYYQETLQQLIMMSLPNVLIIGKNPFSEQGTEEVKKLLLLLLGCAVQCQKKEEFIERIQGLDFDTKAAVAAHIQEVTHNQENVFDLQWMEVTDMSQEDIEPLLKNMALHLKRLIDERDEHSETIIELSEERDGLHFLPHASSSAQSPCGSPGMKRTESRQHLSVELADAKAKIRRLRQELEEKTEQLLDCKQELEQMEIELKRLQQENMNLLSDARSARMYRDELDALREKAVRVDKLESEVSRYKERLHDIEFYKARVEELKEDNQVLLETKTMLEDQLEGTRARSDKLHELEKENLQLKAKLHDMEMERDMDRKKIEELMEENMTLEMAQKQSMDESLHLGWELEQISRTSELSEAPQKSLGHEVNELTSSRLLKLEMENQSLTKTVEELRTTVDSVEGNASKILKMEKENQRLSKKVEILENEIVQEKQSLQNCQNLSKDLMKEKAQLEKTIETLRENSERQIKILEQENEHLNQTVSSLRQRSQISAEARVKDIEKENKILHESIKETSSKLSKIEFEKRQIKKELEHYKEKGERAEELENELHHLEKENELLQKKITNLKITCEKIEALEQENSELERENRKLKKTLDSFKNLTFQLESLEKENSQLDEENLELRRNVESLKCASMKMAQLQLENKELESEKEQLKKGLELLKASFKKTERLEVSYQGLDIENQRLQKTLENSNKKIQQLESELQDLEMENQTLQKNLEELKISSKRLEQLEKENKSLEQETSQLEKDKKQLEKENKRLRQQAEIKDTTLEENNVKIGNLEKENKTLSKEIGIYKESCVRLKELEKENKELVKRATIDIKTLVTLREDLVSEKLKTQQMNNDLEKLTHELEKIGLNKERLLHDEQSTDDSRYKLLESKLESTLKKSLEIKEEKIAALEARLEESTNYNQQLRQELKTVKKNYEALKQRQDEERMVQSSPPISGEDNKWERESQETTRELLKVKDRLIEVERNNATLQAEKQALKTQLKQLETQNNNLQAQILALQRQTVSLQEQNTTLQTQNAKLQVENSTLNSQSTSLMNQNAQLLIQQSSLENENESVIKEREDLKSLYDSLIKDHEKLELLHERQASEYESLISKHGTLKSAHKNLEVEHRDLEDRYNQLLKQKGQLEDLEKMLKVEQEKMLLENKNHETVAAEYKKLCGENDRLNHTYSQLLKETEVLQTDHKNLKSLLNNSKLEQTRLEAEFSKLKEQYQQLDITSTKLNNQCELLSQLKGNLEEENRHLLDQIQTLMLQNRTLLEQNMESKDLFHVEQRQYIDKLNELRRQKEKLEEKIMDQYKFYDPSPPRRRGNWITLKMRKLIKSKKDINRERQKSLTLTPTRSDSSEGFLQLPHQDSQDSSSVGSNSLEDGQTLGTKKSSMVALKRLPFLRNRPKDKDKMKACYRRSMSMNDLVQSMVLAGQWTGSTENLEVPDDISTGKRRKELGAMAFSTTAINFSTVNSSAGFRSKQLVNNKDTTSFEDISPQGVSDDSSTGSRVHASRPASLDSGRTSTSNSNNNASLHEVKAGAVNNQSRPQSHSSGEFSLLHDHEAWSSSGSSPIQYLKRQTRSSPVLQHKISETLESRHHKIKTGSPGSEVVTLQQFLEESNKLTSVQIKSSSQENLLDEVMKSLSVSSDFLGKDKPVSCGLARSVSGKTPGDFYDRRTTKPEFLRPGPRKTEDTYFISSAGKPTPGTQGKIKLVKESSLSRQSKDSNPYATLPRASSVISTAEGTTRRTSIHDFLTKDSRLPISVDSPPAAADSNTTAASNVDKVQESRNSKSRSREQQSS
Chain of UniProt Q00534 (Q00534 whole entry, looked up): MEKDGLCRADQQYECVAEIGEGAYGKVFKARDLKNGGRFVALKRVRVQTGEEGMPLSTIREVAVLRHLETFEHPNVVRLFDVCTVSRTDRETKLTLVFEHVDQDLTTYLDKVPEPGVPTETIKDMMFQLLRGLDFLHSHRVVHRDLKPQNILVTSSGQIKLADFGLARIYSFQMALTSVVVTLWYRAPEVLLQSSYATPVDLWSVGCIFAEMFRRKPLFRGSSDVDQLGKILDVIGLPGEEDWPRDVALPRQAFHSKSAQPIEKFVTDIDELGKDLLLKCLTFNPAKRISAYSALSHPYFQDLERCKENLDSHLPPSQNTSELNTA
Chain of UniProt P62633 (P62633 whole entry, looked up): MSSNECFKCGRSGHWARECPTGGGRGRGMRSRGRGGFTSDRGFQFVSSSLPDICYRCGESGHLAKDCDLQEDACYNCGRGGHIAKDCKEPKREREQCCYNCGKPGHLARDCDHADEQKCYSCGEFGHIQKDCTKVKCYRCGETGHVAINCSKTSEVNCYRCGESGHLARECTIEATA

Target	probe-labelled cysteine peptide fold change (10 µM)	probe-labelled cysteine peptide fold change (50 µM)
CNBP_P62633_67_DCDLQEDACYNCGR (UniProt P62633)	0.697	0.254
CAD_P27708_736_NSVTGGTAAFEPSVDYCVVK (UniProt P27708)	0.124	–
BRAP_Q7Z569_221_AQADADSFYMTCNGR (UniProt Q7Z569)	0.184	0.121
CNST_Q6PJW8_439_SKTEPLISPGCDR (UniProt Q6PJW8)	0.0228	–
CIC_Q96RK0_506_SSFTHCRPPLDPEPPGPPDPPVAFGK (UniProt Q96RK0)	0.0115	-0.206
CARD19_Q96LW7_7_TDQTYCDR (UniProt Q96LW7)	0.557	0.449
CLTC_Q00610_436_YESLELCR (UniProt Q00610)	0.0725	–
CCND3_P30281_6_MELLCCEGTR (UniProt P30281)	-0.195	0.0224
CARD6_Q9BX69_872_AVGKPWPQQACTR (UniProt Q9BX69)	-0.0903	–
CELF2_O95319_85+86_GCCFVTFYTR (UniProt O95319)	-0.141	-0.194
COPB1_P53618_248_CIYNLLQSSSPAVKYEAAGTLVTLSSAPTAIK (UniProt P53618)	-0.337	–
CAPZB_P47756_206_QMEKDETVSDCSPHIANIGR (UniProt P47756)	-0.856	–
CENPN_Q96H22_325_SLAPAGIADAPLSPLLTCIPNKR (UniProt Q96H22)	-0.357	–
COMP_P49747_371_GDACDDDIDGDR (UniProt P49747)	0.938	0.0976
CBX5_P45973_133_IIGATDSCGDLMFLMK (UniProt P45973)	-0.0556	–
COPA_P53621_41_MCTLIDKFDEHDGPVR (UniProt P53621)	0.0108	–
CDK12_Q9NYV4_862_CSNILLNNSGQIK (UniProt Q9NYV4)	-0.0946	-0.186
CDC27_P30260_115_SHDDIVTEFGDSACFTLSLLGHVYCK (UniProt P30260)	0.122	-0.0262
CAP1_Q01518_416_TDGCHAYLSK (UniProt Q01518)	0.0498	-0.0228
CCDC93_Q567U6_99_CPHQLEPHQIQGMDFIHIFPVVQWLVK (UniProt Q567U6)	0.00408	–

Target	probe-labelled cysteine peptide fold change (10 µM)	probe-labelled cysteine peptide fold change (50 µM)
CAMK1_Q14012_267_RFTCEQALQHPWIAGDTALDK (UniProt Q14012)	–	-0.103
CNOT1_A5YKK6_219_CPVVLAPLLYPEKR (UniProt A5YKK6)	-0.629	-0.193
CHST11_Q9NPF2_89_DQVTDTCR (UniProt Q9NPF2)	0.0268	-0.16
CEPT1_Q9Y6K0_11_CGDSHPESPVGFGHMSTTGCVLNK (UniProt Q9Y6K0)	-0.0475	-0.586
CAND1_Q86VP6_1007_NCIGDFLK (UniProt Q86VP6)	5.23e-05	0.122
CDK5RAP2_Q96SN8_508_DLEVIQQNCYLMAAEDLELR (UniProt Q96SN8)	-0.00816	0.248
BRIX1_Q8TDN6_158_MTGNCLK (UniProt Q8TDN6)	0.00674	-0.00131
COG4_Q9H9E3_240_FSEYLCK (UniProt Q9H9E3)	-0.00443	0.156
CLUH_O75153_551_HQVLNDRDEEVELCSSVECK (UniProt O75153)	-0.0322	-0.0386
COG1_Q8WTW3_72_CAVGLVDAVK (UniProt Q8WTW3)	0.0562	0.0762
CNPY3_Q9BT09_104_LIEVTETICKR (UniProt Q9BT09)	-0.0278	0.271
BRCA1_P38398_712_CSNTSELK (UniProt P38398)	0.0312	-0.088
CALR_P27797_105_GQTLVVQFTVKHEQNIDCGGGYVK (UniProt P27797)	-0.618	-0.248
CDK6_Q00534_280_CLTFNPAK (UniProt Q00534)	-0.0529	-0.0366
CDC20_Q12834_472_CFELDPAR (UniProt Q12834)	-0.00368	-0.00419
CLASP2_O75122_528_IPRPSVSQGCSR (UniProt O75122)	-0.0975	-0.0717
CDC42_P60953_18_TCLLISYTTNK (UniProt P60953)	0.436	0.335
CDKL5_O76039_152_LCDFGFAR<|>PRKD3_Q00532_719_LCDFGFAR<|>CDKL1_Q15139_144_LCDFGFAR<|>PRKD1_Q9BZL6_726_LCDFGFAR<|>CDKL3_Q9NRP7_142_LCDFGFAR (UniProt Q9NRP7+Q9BZL6+Q15139+Q00532+O76039)	0.129	0.157
CCDC88A_Q3V6T2_524_QSLQNCQNLSK (UniProt Q3V6T2)	0.0236	-0.00671
